The text below walks through data of ChEMBL document CHEMBL4888484, “Replenishing the malaria drug discovery pipeline: Screening and hit evaluation of the MMV Hit Generation Library 1 (HGL1) against asexual blood stage Plasmodium falciparum ,using a nano luciferase reporter read-out” (2022).

The campaign covered roughly 150,000 compounds. About 540 (0.36%) showed an effect of 50% or more. The list shows a part of the results.

The test system of this assay is Plasmodium falciparum. Nature of the assay: Primary screen in NF54 nanoGlo assay, in single point, at 2uM, 72h; a lower Z score goes with more inhibition. As to conditions: timepoint 72 hour. It is filed as functional, Erythrocyte.
Take `COc1ccc(C2=NCC(=O)Nc3c2oc2ccccc32)cc1`: the “% Inhibition” value is listed as -7% and the Z score is reported as 0.93.

Consider `CCC1CN2CCCCC2CN1C(=O)c1cccnc1O` (stereo unspecified), for which the “% Inhibition” value was -2% and the Z score amounted to 0.24.

On to `COc1ccc(N2CCN(CCc3nc4ccccc4c(=O)[nH]3)CC2)nc1`, for which the “% Inhibition” value is -14% and the Z score was found to be 2.26.

With `COc1cccc([C@H]2CN(C(=O)OCC(C)C)[C@@H]3C4CCN(CC4)[C@H]23)c1`, the “% Inhibition” value is on record as -6% and the Z score amounted to 0.95.

As to `C[C@@H](Cc1nc2ccccc2s1)NCCCn1cccn1`, the “% Inhibition” value is -4% and the Z score came to 0.49.

On to `CCO[C@@H](CN(C)C)c1ccccc1OC`, for which the “% Inhibition” value is on record as -14% and the Z score was found to be 1.76.

For `O=C(Cc1ccc(Cl)cc1)N1CCC2(CC1)OCCO2`, the “% Inhibition” value is reported as -8% and the Z score was determined as 1.39.

For `O=C(c1cnn2ccccc12)N1C[C@H]2CC[C@@H](C1)N(CC1CC1)C2`, the “% Inhibition” value was -4% and the Z score is recorded as 0.68.

Take `CCN(CC)C(=O)Oc1ccc2c(ccn2Cc2ccc(Cl)cc2)c1NC(=O)c1cc(F)cc(F)c1`: the “% Inhibition” value is recorded as -1% and the Z score was 0.16.

Take `O=C(c1ccc[nH]1)N1C[C@@H]2CC[C@H]1CN(Cc1ccccn1)C2`: the “% Inhibition” value was -3% and the Z score is on record as 0.63.

`Cc1cc(C(=O)N2CCC3(CC2)OCCO3)sc1C`: the “% Inhibition” value is on record as -18% and the Z score turned out to be 1.66.

For the molecule `CCN(CC)c1onc(-c2ccccc2)c1CN(CCN1CCOCC1)C(=O)Cc1ccccc1`, the “% Inhibition” value was 3% and the Z score is -0.56.

Consider `Cc1[nH]c2ccccc2c1C(=O)[C@H](C)N1CCCCCC1`, for which the “% Inhibition” value is -15% and the Z score came out at 2.1.

For `CCCn1c(=O)oc2cc(S(=O)(=O)N3CCC(CC(=O)Nc4ccc(F)cc4C)CC3)ccc21`, the “% Inhibition” value is -10% and the Z score is on record as 0.89.

As for `O=C(CCc1c[nH]cn1)N1CCc2c(Cl)cccc21`, the “% Inhibition” value is -13% and the Z score is 1.47.

On to `O=C(C[N+]12CCC(CC1)[C@@H](C(O)(c1ccccc1)c1ccccc1)C2)c1ccc(Br)cc1`, for which the “% Inhibition” value was found to be 1% and the Z score is recorded as -0.23.

As to `CCc1nc(C)c(CC(=O)N2C[C@H]3CC[C@@H](C2)N(CC=C(C)C)C3)c(=O)[nH]1`, the “% Inhibition” value came to 3% and the Z score was -0.27.

Regarding `CN(CC(C)(C)C)C(=O)N1CC2CCC1CN2` (stereo unspecified), the “% Inhibition” value was 0% and the Z score stood at 0.03.

Consider `Cc1nc[nH]c1CN1C[C@H]2CC[C@@H](C1)N(C(=O)Cc1c[nH]c3ccccc13)C2`, for which the “% Inhibition” value was -10% and the Z score was found to be 0.97.

Regarding `Cc1ccc(N2C[C@H](c3cc(F)cc(F)c3)[C@@H]3[C@H]2C2CCN3CC2)nn1`, the “% Inhibition” value is given as -19% and the Z score is 1.73.

`CCN1C(=O)C(O)(C(F)(F)F)c2cc(C(O)(C(=O)OC)C(F)(F)F)ccc21` (stereo unspecified): the “% Inhibition” value is recorded as 4% and the Z score is given as -0.46.

As for `N#Cc1cccc(CN2C3CCC2CC(=O)C3)c1`, the “% Inhibition” value was -16% and the Z score came to 1.99.

Take `Cc1ccc(CN2CCN(C(=O)Cc3cccnc3)[C@H]3CS(=O)(=O)C[C@H]32)o1`: the “% Inhibition” value came to 5% and the Z score is on record as -0.92.

On to `COCCn1cc(C(=O)NCc2c(F)cccc2OC(F)F)nn1`, for which the “% Inhibition” value was determined as 34% and the Z score is given as -3.83.

For `COc1ccccc1NC(=O)N1C[C@@H]2C[C@H](C1)c1c(C3CCCCC3)ccc(=O)n1C2`, the “% Inhibition” value is -6% and the Z score was found to be 1.12.

With `CC(NC[C@H](C)O)C(C)(C)c1ccc(F)cc1` (stereo partly specified), the “% Inhibition” value is -3% and the Z score amounted to 0.44.

With `C1CCC(C2CCCCC2NC2CC2)CC1` (stereo unspecified), the “% Inhibition” value is recorded as -3% and the Z score is 0.42.

In the case of `O=C1OCCN1c1cccc2c1CCNC2`, the “% Inhibition” value was -13% and the Z score was determined as 2.07.

`c1cc(-c2cc3c(N4CCNCC4)cccc3s2)c2ccsc2c1`: the “% Inhibition” value is recorded as -1% and the Z score is 0.11.

In the case of `O=C(NCc1ccccc1)N1Cc2ccccc2-n2cccc2[C@H]1c1ccccc1`, the “% Inhibition” value was -9% and the Z score was determined as 1.11.

In the case of `Cn1ccc2[nH]c(C(=O)N3C4CCC3C(CO)C4)cc21` (stereo unspecified), the “% Inhibition” value is given as -6% and the Z score was 0.73.

Regarding `O=C1CCN(C(=O)c2ccc(S(=O)(=O)N3CCCCC3)cc2)CC1`, the “% Inhibition” value is -2% and the Z score amounted to 0.38.

In the case of `COc1ccc(Cl)cc1C(=O)[C@H]1CCCN(Cc2cccc(C)n2)C1`, the “% Inhibition” value was -2% and the Z score is listed as 0.41.

Regarding `COc1cc(NCc2cnc(N(C)C)nc2)ncc1Br`, the “% Inhibition” value is -11% and the Z score stood at 2.05.

For the molecule `O=C1NC(=O)C2(Cc3cc(C(F)(F)F)ccc3N3CCCCC32)C(=O)N1c1ccccc1` (stereo unspecified), the “% Inhibition” value is on record as 36% and the Z score was -4.03.

As for `O=C(NCCc1cccc(Cl)c1)N1CCN([C@H]2CN3CCC2CC3)CC1`, the “% Inhibition” value was -14% and the Z score was 2.67.

Take `Cc1cc(C)n(CCN2C[C@@H](C(=O)O)[C@H](c3ccc(Br)cc3)C2)n1`: the “% Inhibition” value is 5% and the Z score is recorded as -0.93.

For `c1cncc(CN(Cc2noc(C3CCCC3)n2)[C@H]2CN3CCC2CC3)c1`, the “% Inhibition” value came out at 1% and the Z score is -0.11.

Take `Cc1csc(O[C@H]2CN3CCC2CC3)n1`: the “% Inhibition” value was determined as 1% and the Z score was -0.07.

For the molecule `c1cc2c(c(-c3ccc4ncccc4c3)c1)CCNC2`, the “% Inhibition” value was -12% and the Z score was determined as 2.36.

Turning to `C1CCC(NC2CCCC3OCCC23)CC1` (stereo unspecified), the “% Inhibition” value is recorded as -3% and the Z score was determined as 0.52.

Turning to `CC(Cc1ccc(Cl)cc1)NCC1CCCS1(=O)=O` (stereo unspecified), the “% Inhibition” value is 6% and the Z score is listed as -0.69.

In the case of `CC(C)NC(=O)N1C[C@@H]2C[C@H](C1)c1ccc(-c3cccnc3)c(=O)n1C2`, the “% Inhibition” value is -6% and the Z score turned out to be 0.76.

For the molecule `CCOc1ccc(NC(=O)C(Cl)(Cl)Cl)cc1`, the “% Inhibition” value was -7% and the Z score was determined as 1.2.

As to `CCn1ccc(C(=O)N2CCC3(CC2)NCc2ccccc2-n2ccnc23)n1`, the “% Inhibition” value was found to be 7% and the Z score was -0.95.

In the case of `c1ccc2c(c1)oc1c(N3CCN4CCC[C@H]4C3)ncnc12`, the “% Inhibition” value is -8% and the Z score was determined as 1.47.

On to `COc1ccc(-c2oc(=O)n(Cc3cccc(Cl)c3)c2-c2ccc(OC)cc2)cc1`, for which the “% Inhibition” value was -1% and the Z score came out at 0.08.

Take `CC(Cc1ccc(Br)cc1)NC[C@@H](C)O` (stereo partly specified): the “% Inhibition” value is on record as -10% and the Z score is 1.05.

On to `O=C(c1[nH]nc2c1CCCC2)N1CCC2(CC1)OCCO2`, for which the “% Inhibition” value came out at 4% and the Z score is on record as -0.62.

As to `Cc1ccc(OCc2c(C(=O)NCc3ccco3)c(=O)cc(C)n2CCN2CCOCC2)cc1`, the “% Inhibition” value is reported as -14% and the Z score came to 1.83.

For `CC(Cc1ccc(F)c(Br)c1)NC(=O)NC1CC(=O)N(C)C1` (stereo unspecified), the “% Inhibition” value is recorded as -15% and the Z score is on record as 2.05.

Regarding `CCn1c(=O)oc2cc(-c3noc(COc4ccc(C)cc4)n3)ccc21`, the “% Inhibition” value was -7% and the Z score is reported as 0.68.

Consider `CO[C@H]1C[C@H]2CC[C@@H](C1)N2Cc1noc(C2CCCC2)n1`, for which the “% Inhibition” value is -2% and the Z score is listed as 0.26.
